Laboratory results: patent US11339383B2, “G proteins” (HEPTARES THERAPEUTICS LIMITED, priority 2016, dated 2022)
Where a chain is given by its changes, count along the chain named. Names may count otherwise.

Key:
[1] = biological target: T1, β1AR-WT (Meleagris gallopavo, UniProt P07700, C116L); assay: Saturation binding assay, ^3H-DHA binding to β1AR-WT; parameters: species or system turkey; conditions: insect cell membranes, 20° C., read-out: dissociation constant (Kd) of ^3H-DHA binding to β1AR-WT
Protocol: FIG. 2. Saturation binding data for β1AR constructs. […] Data represent mean±SEM of three independent experiments. Curves shown are from a representative experiment performed in duplicate.
Insect cells expressing β1AR were resuspended in 1 ml of assay buffer (20 mM HEPES, pH 7.5, 100 mM NaCl), supplemented with Complete EDTA-free protease inhibitors (Roche). Cells were broken by 10 passages through a bent 26 G needle. Cell debris was removed by centrifugation (3000 g for 5 mins at 4° C.). The supernatant was diluted and 2×0.96 ml aliquots taken for each sample. Alprenolol (120 μl) was added to the negative sample (1 mM final concentration) and assay buffer (120 μl) was added to the positive sample. Samples were aliquoted (12×108 μl) into a PCR plate. [^3H]-dihydroalprenolol (12 μl) was added to each well (to give final concentrations in the range: 2.5 nM-2.56 μM). Samples were mixed and incubated at 20° C. for 2 h. Samples (2×50 μl duplicates) were vacuum filtered through 96-well glass fibre filter plates (Merck Millipore), pre-soaked with PEI (0.1%). Each well was washed with assay buffer (3×200 μl). Filters were dried, punched into scintillation vials and 4 ml Ultima Gold scintillant (Perkin Elmer) was added. Radioactivity was quantified by scintillation counting (1 min per sample) using a Tri-Carb counter (Perkin Elmer). Data for negative samples were subtracted from positive samples. […]

[2] = biological target: T1, β1AR-WT; assay: Thermostability measurement of β1AR-WT complexes (^3H-norepinephrine); assay type: biochemical, turkey; conditions: for apparent Tm of β1AR-WT complex in DDM: dodecylmaltoside 0.1%, ^3H-norepinephrine 200 nM, 30 min heating, uncoupled β1AR-WT 25.9° C.
Protocol: A new parental construct (mini Gs161), which contained a modified N-terminus and linker region (see Table 2), was used to combine mutations. […]. The agonist ^3H-norepinephrine (^3H-NE) was used in the Tm assay, however due to the high background signal associated with this ligand, a maximum concentration of 200 nM could be used in the assay. […] Therefore, Tm values quoted for uncoupled β1AR-WT are under non-saturating agonist conditions, but β1AR-WT complexes, which have higher agonist affinity, are under agonist saturating conditions.
Insect cells expressing wild type β1AR-WT were resuspended in 1 ml of assay buffer (25 mM HEPES, pH 7.5, 400 mM NaCl, 1 mM MgCl2, 1 mM ascorbate, 0.1% BSA, 0.004% bacitracin), supplemented with Complete EDTA-free protease inhibitors (Roche). Cells were broken by 10 passages through a bent 26 G needle. Cell debris was removed by centrifugation (3000 g for 5 mins at 4° C.). The supernatant was diluted and 2×0.78 ml aliquots taken for each sample. Norepinephrine (120 μl) was added to the negative sample (200 μM final concentration) and assay buffer (120 μl) was added to the positive sample. Binding partner (120 μl) was added to both samples (25 μM final concentration). ^3H-norepinephrine (120 μl), prepared in buffer containing 1 U/ml apyrase (Sigma-Aldrich), was added to both samples (200 nM final concentration). Samples were mixed and incubated at 4° C. for 1 h. Detergent (60 μl) was added to both samples (final concentration: DDM=0.1%; DM=0.13%; OG=0.8%). Samples were mixed and incubated on ice for 1 h. Insoluble material was removed by centrifugation (17000 g for 5 mins at 4° C.). The supernatant was aliquoted (9×120 μl) into 0.2 ml PCR tubes. Each sample was heated to the desired temperature (between 4 and 50° C.) for exactly 30 minutes, followed by quenching on ice for 30 minutes. […] Plates were centrifuged (1800 rpm for 5 mins at 4° C.). The filtrate was transferred to Isoplates (Perkin Elmer), and 200 μl Optiphase Supermix scintillant (Perkin Elmer) was added to each well. Radioactivity was quantified by scintillation counting (1 min per well) using a MicroBeta counter (Perkin Elmer). Data for negative samples were subtracted from positive samples. Data were plotted graphically and apparent melting temperature (Tm) values derived from sigmoidal dose-response (variable slope) analysis.

## CCCc1ccccc1OCC(O)CNC(C)C (stereo not drawn) [^3H-DHA, ^3H-dihydroalprenolol]
[1]
  Kd: 5 ± 0.6 nM

B1: Mini Gs162: mini Gs161 with A249D (protein)
chain: MGHHHHHHANKKIEKQLQKDKQVYRATHRLLLLGAGESGKSTIVKQMRILHGGGGGETKFQVDKVNFHMFDVGGQRDERRKWIQCFNDVTAIIFVVDSSSYNMVIREDNQTNRLQEALNLFKSIWNNRWLRTISVILFLNKQDLLAEKVLAGKSKIEDYFPEFARYTTPEDATPEPGEDPRVTRAKYFIRDEFLRISTASGDGRHYCYPHFTCAVDTENIRRVFNDCRDIIQRMHLRQYELL
modifications: MINI GS162
notes: mini Gs161 with A249D
[2]
  apparent Tm of β1AR-WT complex in DDM: 25.1 (n = 1) ° C.
[2]; listed as mini Gs162
  apparent Tm of β1AR-WT complex in DDM: 25.1 °C

B2: Mini Gs340: mini Gs199 with I372A (protein)
chain: MGHHHHHHANKKIEKQLQKDKQVYRATHRLLLLGADNSGKSTIVKQMRILHGGGGGGGGTSGIFETKFQVDKVNFHMFDVGGQRDERRKWIQCFNDVTAIIFVVDSSDYNRLQEALNDFKSIWNNRWLRTISVILFLNKQDLLAEKVLAGKSKIEDYFPEFARYTTPEDATPEPGEDPRVTRAKYFIRDEFLRISTASGDGRHYCYPHFTCAVDTENARRVFNDCRDIIQRMHLRQYELL
modifications: MINI GS340
notes: mini Gs199 with I372A
[2]
  apparent Tm of β1AR-WT complex in DDM: 34.0 (n = 1) ° C.
[2]; listed as I372A
  apparent Tm of β1AR-WT complex in DDM: 34.00 °C

B3: Mini GS303: mini Gs199 with V375I (protein)
chain: B2 chain with A218I, V221I
modifications: MINI GS303
notes: mini Gs199 with V375I
[2]
  apparent Tm of β1AR-WT complex in DDM: 31.5 ± 0.6 (n = 3) ° C.

B4: Mini Gs352: mini Gs199 with L63Y-I372A (protein)
chain: B2 chain with L50Y
modifications: MINI GS352
notes: mini Gs199 with L63Y-I372A
[2]
  apparent Tm of β1AR-WT complex in DDM: 34.5 (n = 1) ° C.

B5: Mini Gs254: mini Gs199 with M60A (protein)
chain: B2 chain with M47A, A218I
modifications: MINI GS254
notes: mini Gs199 with M60A
[2]
  apparent Tm of β1AR-WT complex in DDM: 31.5 ± 0.3 (n = 5) ° C.

B6: Mini Gs199: mini Gs, Gly8 linker, switch III deleted, G49D E50N A249D S252D L272D (protein)
chain: B2 chain with A218I
modifications: MINI GS199
notes: mini Gs, Gly8 linker, switch III deleted, G49D E50N A249D S252D L272D
[2]
  apparent Tm of β1AR-WT complex in DDM: 29.2 ± 0.2 (n = 17) ° C.

B7: Mini Gs345: mini Gs199 with I372A-V375I; detergent stabilised construct (protein)
chain: B2 chain with V221I
modifications: MINI GS345
notes: mini Gs199 with I372A-V375I; detergent stabilised construct
[2]; DDM
  apparent Tm of complex higher than that of the Nb80 complex by: 3.0 °C
  apparent Tm of complex lower than that of the Gs-Nb35 complex by: 0.8 °C
[2]
  apparent Tm of β1AR-WT complex in DDM: 35.0 (n = 1) ° C.
[2]; listed as I372A-V375I
  apparent Tm of β1AR-WT complex in DDM: 35.0 °C

B8: Mini Gs350: mini Gs199 with L63Y (protein)
chain: B2 chain with L50Y, A218I
modifications: MINI GS350
notes: mini Gs199 with L63Y
[2]
  apparent Tm of β1AR-WT complex in DDM: 30.9 ± 0.4 (n = 2) ° C.

B9: Mini Gs164: A249D and switch III deletion (protein)
chain: MGHHHHHHANKKIEKQLQKDKQVYRATHRLLLLGAGESGKSTIVKQMRILHGGGGGETKFQVDKVNFHMFDVGGQRDERRKWIQCFNDVTAIIFVVDSSSYNRLQEALNLFKSIWNNRWLRTISVILFLNKQDLLAEKVLAGKSKIEDYFPEFARYTTPEDATPEPGEDPRVTRAKYFIRDEFLRISTASGDGRHYCYPHFTCAVDTENIRRVFNDCRDIIQRMHLRQYELL
modifications: MINI GS164
notes: A249D and switch III deletion
[2]
  apparent Tm of β1AR-WT complex in DDM: 28.6 (n = 1) ° C.
[2]; listed as mini Gs164
  apparent Tm of β1AR-WT complex in DDM: 28.6 °C

B10: Mini Gs165: A249D-S252D-SIII (protein)
chain: B9 chain with S100D
modifications: MINI GS165
notes: A249D-S252D-SIII
[2]
  apparent Tm of β1AR-WT complex in DDM: 28.5 ± 0.2 (n = 2) ° C.

B11: Mini Gs183: G49D-E50N-A249D-S252D-SIII-L272D (protein)
chain: B9 chain with G36D, E37N, S100D, L110D
modifications: MINI GS183
notes: G49D-E50N-A249D-S252D-SIII-L272D
[2]
  apparent Tm of β1AR-WT complex in DDM: 28.7 ± 0.2 (n = 4) ° C.

B12: Mini Gs169: A249D-S252D-SIII- (mutation list truncated in table) (protein)
chain: B9 chain with S100D, L110D
modifications: MINI GS169
[2]
  apparent Tm of β1AR-WT complex in DDM: 28.8 (n = 1) ° C.

B13: Mini Gs393 (protein)
chain: MGHHHHHHENLYFQGIEKQLQKDKQVYRATHRLLLLGADNSGKSTIVKQMRILHGGSGGSGGTSGIFETKFQVDKVNFHMFDVGGQRDERRKWIQCFNDVTAIIFVVDSSDYNRLQEALNDFKSIWNNRWLRTISVILFLNKQDLLAEKVLAGKSKIEDYFPEFARYTTPEDATPEPGEDPRVTRAKYFIRDEFLRISTASGDGRHYCYPHFTCAVDTENARRIFNDCRDIIQRMHLRQYELL
modifications: N-terminal His tag, TEV site; MINI GS393
[2]; DDM
  apparent Tm of complex higher than that of the Nb80 complex by: 2.1 °C
  apparent Tm of complex higher than uncoupled β1AR-WT by: 8.2 °C
  apparent Tm of complex lower than that of the Gs-Nb35 complex by: 1.7 °C
[2]; DM
  apparent Tm of complex higher than that of the Nb80 complex by: 1.9 °C
  apparent Tm of complex higher than uncoupled β1AR-WT by: 10.1 °C
  apparent Tm of complex lower than that of the Gs-Nb35 complex by: 0.6 °C
[2]; NG
  apparent Tm of complex higher than that of the Gs-Nb35 complex by: 5.7 °C
  apparent Tm of complex higher than that of the Nb80 complex by: 8.0 °C
[2]; OG
  apparent Tm of complex higher than that of the Gs-Nb35 complex by: 6.1 °C
  apparent Tm of complex higher than that of the Nb80 complex by: 5.4 °C
[2]; decylmaltoside, uncoupled β1AR-WT 20.4° C.
  apparent Tm of β1AR-WT complex in DM: 30.5 °C
[2]
  apparent Tm of β1AR-WT complex in DDM: 34.1 °C
[2]; nonylglucoside, uncoupled β1AR-WT did not survive solubilisation
  apparent Tm of β1AR-WT complex in NG: 24.7 °C
[2]; octylglucoside, uncoupled β1AR-WT did not survive solubilisation
  apparent Tm of β1AR-WT complex in OG: 19.7 °C
